Whole data set: some 33,000 sequences, median “E-score (-0.5 to 0.5)” near -0.012, cut for the highest 2% near 0.27. This is one part of the list.
These sequences were tested against T1, Vhr1 (UniProt P40522) (assay: PBM E-score (8-mer binding enrichment) (E-score (-0.5 to 0.5)); higher = stronger / more preferred TF binding; most listed sequences are background and not binding sites). Conditions: protein concentration: 200 nM; construct: GST-full length.
T1 sequence: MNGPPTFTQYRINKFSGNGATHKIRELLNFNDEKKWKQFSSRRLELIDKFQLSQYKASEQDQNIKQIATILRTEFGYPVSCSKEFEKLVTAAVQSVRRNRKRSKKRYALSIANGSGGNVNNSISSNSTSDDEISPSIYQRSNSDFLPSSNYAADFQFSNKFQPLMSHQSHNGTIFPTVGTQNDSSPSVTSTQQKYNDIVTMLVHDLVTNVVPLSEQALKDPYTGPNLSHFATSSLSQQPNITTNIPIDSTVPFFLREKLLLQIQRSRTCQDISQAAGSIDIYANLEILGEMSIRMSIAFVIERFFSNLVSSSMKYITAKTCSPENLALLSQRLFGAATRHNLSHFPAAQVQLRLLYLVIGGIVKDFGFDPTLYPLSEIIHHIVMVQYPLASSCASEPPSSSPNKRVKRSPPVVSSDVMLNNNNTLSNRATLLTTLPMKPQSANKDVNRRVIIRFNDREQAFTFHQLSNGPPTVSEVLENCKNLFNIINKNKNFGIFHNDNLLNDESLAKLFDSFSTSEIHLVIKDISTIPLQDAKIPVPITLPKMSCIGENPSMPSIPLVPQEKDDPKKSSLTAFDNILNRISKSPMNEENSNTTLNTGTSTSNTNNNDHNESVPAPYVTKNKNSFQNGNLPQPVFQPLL
Procedure: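 Universal 'all 10-mer' protein binding microarrays (Agilent AMADID 015681) probed with GST-tagged S. cerevisiae TFs (full-length or DBD) made by in vitro transcription/translation (PURExpress), about 100-200 nM. Bound TF was detected with fluorescent anti-GST. Each ungapped 8-mer (which stands for itself and its reverse complement) is scored by the PBM enrichment score (E-score), a modified Wilcoxon-Mann-Whitney statistic from -0.5 to +0.5, computed with the Universal PBM Analysis Suite. Scale: above 0.35 generally sequence-specific binding.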
ATCTTCCG was tested, and the “PBM E-score” value was -0.054.
For ACCGATCT, the “PBM E-score” value was -0.0783.
ATACAAAT was tested, and the “PBM E-score” value was 0.0417.
With ATGATATA the “PBM E-score” value was 0.0327.
With CTACTCCC the “PBM E-score” value was 0.12.
With AGGTGTAT the “PBM E-score” value was 0.11.
ATAGCACA was tested, and the “PBM E-score” value was 0.234.
ACGGTTAC was tested, and the “PBM E-score” value was 0.0539.
CGTAAACG was tested, and the “PBM E-score” value was -0.276.
CTTGGGAC was tested, and the “PBM E-score” value was -0.0152.
CCGCAATC was tested, and the “PBM E-score” value was 0.0238.
In the case of AGAGTCTC, the “PBM E-score” value is reported as 0.191.
In the case of CCTTAACA, the “PBM E-score” value is reported as -0.264.
In the case of AGGGGATA, the “PBM E-score” value is reported as 0.0949.
With ATTTAGTG the “PBM E-score” value was 0.165.
GCATTTGA was tested, and the “PBM E-score” value was 0.0275.
AGTTCCGA was tested, and the “PBM E-score” value was 0.136.
ACTTCGTC was tested, and the “PBM E-score” value was 0.0428.
In the case of ACGGGGTA, the “PBM E-score” value is reported as -0.0475.
With CCGACTTC the “PBM E-score” value was -0.223.
In the case of TGCATAAA, the “PBM E-score” value is reported as 0.0296.
For GGTTGTCA, the “PBM E-score” value was 0.0912.
AGGACCTC was tested, and the “PBM E-score” value was -0.00731.
AAGACTCT was tested, and the “PBM E-score” value was 0.209.
With GAAACGTA the “PBM E-score” value was -0.0795.
For CCGAGGAC, the “PBM E-score” value was -0.171.
With GAACAGCA the “PBM E-score” value was 0.0177.
ACAGTCGT was tested, and the “PBM E-score” value was 0.0666.
GTGGCGAA was tested, and the “PBM E-score” value was -0.0714.
In the case of ATGACAAC, the “PBM E-score” value is reported as 0.0379.
GCTCAACA was tested, and the “PBM E-score” value was -0.157.
For AAGCGACT, the “PBM E-score” value was 0.127.
With AAAATTCC the “PBM E-score” value was -0.302.
For CACGAAGC, the “PBM E-score” value was 0.0674.
ACTTGCCT was tested, and the “PBM E-score” value was -0.0226.
GTTTCCCA was tested, and the “PBM E-score” value was 0.129.
GATGCGAC was tested, and the “PBM E-score” value was 0.102.
In the case of CGCGGCAC, the “PBM E-score” value is reported as 0.0304.
In the case of GCAAACCC, the “PBM E-score” value is reported as -0.0203.
With GTAAGGGA the “PBM E-score” value was -0.13.
For AAACGGGT, the “PBM E-score” value was -0.0906.
CTTAATCA was tested, and the “PBM E-score” value was 0.214.
In the case of AACGTTGC, the “PBM E-score” value is reported as 0.0114.
With AGCAGCGA the “PBM E-score” value was 0.0486.
For ACGACATA, the “PBM E-score” value was -0.0639.
In the case of CTAGGACA, the “PBM E-score” value is reported as -0.0587.
For ACAATACT, the “PBM E-score” value was 0.167.
In the case of AAGCTTCA, the “PBM E-score” value is reported as -0.158.
CCTATAGG was tested, and the “PBM E-score” value was -0.243.
CACCGCCC was tested, and the “PBM E-score” value was 0.293.
In the case of CTTGCTGA, the “PBM E-score” value is reported as -0.0484.
With CGCGAGTC the “PBM E-score” value was 0.355.
With CGAGTGTA the “PBM E-score” value was -0.0117.
ACACGGAT was tested, and the “PBM E-score” value was 0.287.
With CTAGCCCA the “PBM E-score” value was -0.0668.
With AGTTCAGA the “PBM E-score” value was -0.232.
For CGCTCACA, the “PBM E-score” value was 0.137.
In the case of AGGACCTG, the “PBM E-score” value is reported as -0.1.
ATCAGCTA was tested, and the “PBM E-score” value was 0.0387.
AGGATGTC was tested, and the “PBM E-score” value was 0.107.
For GAAACATA, the “PBM E-score” value was 0.2.
In the case of CGATGACA, the “PBM E-score” value is reported as 0.0847.
CTGGCGGA was tested, and the “PBM E-score” value was -0.08.
GCGCACTA was tested, and the “PBM E-score” value was -0.0419.
For GCGCGCCC, the “PBM E-score” value was -0.0677.
With AAGTGAAA the “PBM E-score” value was -0.0891.
With CTACAACA the “PBM E-score” value was -0.0223.
With ACTATTGC the “PBM E-score” value was 0.0584.
For ATAGACGA, the “PBM E-score” value was 0.0089.
CCATGAAG was tested, and the “PBM E-score” value was 0.0475.
For CCGCTCAC, the “PBM E-score” value was -0.0465.
In the case of ATCCTGCC, the “PBM E-score” value is reported as -0.0296.
ACGTTGGG was tested, and the “PBM E-score” value was 0.057.
In the case of GCTTACAC, the “PBM E-score” value is reported as 0.101.
In the case of GGAACAAC, the “PBM E-score” value is reported as -0.0355.
In the case of TCAGGAGA, the “PBM E-score” value is reported as 0.0747.
CCGTAACG was tested, and the “PBM E-score” value was -0.131.
For GAGGGAAC, the “PBM E-score” value was -0.11.
In the case of GAGGTAAA, the “PBM E-score” value is reported as -0.0937.
With ACGGTATA the “PBM E-score” value was -0.0661.
With GGAGAGCC the “PBM E-score” value was -0.161.
AACGTGTC was tested, and the “PBM E-score” value was -0.101.
For GTGCGGCA, the “PBM E-score” value was 0.0419.
For ACAATAGC, the “PBM E-score” value was -0.0489.
With CCGTCTGA the “PBM E-score” value was -0.0642.
In the case of CCGTTTGA, the “PBM E-score” value is reported as -0.0968.

From the supplement of paper PMC3334620
